The other results are listed elsewhere or left out. The main result of the screen is listed elsewhere. These columns were measured beside it and carry no call.

The target of the assay is GTPase KRas (Homo sapiens) (UniProt P01116). Nature of the assay: Covalent labelling of cysteine mutants by fragments, read by mass spectrometry (AID 2202238). Also on record: protein at 5 µM with 500 µM competing thiol for 1.5 h. The settings on record: KRAS G12D cysteine mutants, disulfide tethering, MALDI-TOF labeling, stronger effect = higher value, fragment at 500 µM.
Sequence of UniProt P01116 (P01116 whole entry, looked up, the tested form may be a part): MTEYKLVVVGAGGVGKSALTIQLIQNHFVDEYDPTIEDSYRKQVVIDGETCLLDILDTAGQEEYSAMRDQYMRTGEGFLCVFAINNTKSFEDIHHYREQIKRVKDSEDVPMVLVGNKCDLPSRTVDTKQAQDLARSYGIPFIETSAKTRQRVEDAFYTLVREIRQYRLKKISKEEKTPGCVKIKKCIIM
The mark [1] stands for this setting: measured here: G75C mutant labeling.
[2] abbreviates: measured here: H94C mutant labeling.
[3] abbreviates: measured here: I36C mutant labeling.
Where [4] appears, read: measured here: L120C mutant labeling.
[5] abbreviates: measured here: M67C mutant labeling.
The mark [6] stands for this setting: measured here: M72C mutant labeling.
The mark [7] stands for this setting: measured here: N86C mutant labeling.
[8] abbreviates: measured here: P121C mutant labeling.
[9] abbreviates: measured here: S122C mutant labeling.
[10] abbreviates: measured here: S136C mutant labeling.
Where [11] appears, read: measured here: G60C mutant labeling.
The mark [12] stands for this setting: measured here: N26C mutant labeling.

Turning to `CC(C)(C)OC(=O)N1CC2(CCN2C(=O)CCS)C1`, the percent labeling runs as follows: under setting [1], 6.1%; under setting [2], 18.8%; under setting [3], 17.4%; under setting [4], 16.7%; under setting [5], 17.8%; under setting [6], 12.5%. For the same compound, the percent labeling was 8.6% under setting [7], 20.9% under setting [8], 22.6% under setting [9] and 30.1% under setting [10].
For `COc1ccc(S(C)(=O)=O)cc1C(=O)NCCS`, the percent labeling by setting is: under setting [11], 35.8%; under setting [1], 23.9%; under setting [2], 39.3%; under setting [3], 30%; under setting [4], 49.4%; under setting [5], 40.1%. For the same compound, the percent labeling under setting [6] came out at 43.1%; the percent labeling under setting [12] was 45.4%; the percent labeling under setting [7] amounted to 36.3%; the percent labeling under setting [8] stood at 35.8%; the percent labeling under setting [9] came to 39.3%; the percent labeling under setting [10] worked out at 63.5%.
Consider `O=C(CCS)NCC(O)c1cc(Cl)c2c(c1)OCCO2` (centres undefined), for which the percent labeling was 15.3% under setting [1]; 36.8% under setting [2]; 43.2% under setting [3]; 32.3% under setting [4]; 44% under setting [5]; 44.2% under setting [6]. Further, the percent labeling runs as follows: under setting [7], 28.5%; under setting [8], 39.2%; under setting [9], 32.1%; under setting [10], 53.3%.
In the case of `CC(=O)Nc1cc(NC(=O)CCS)ccc1F`, the percent labeling came out at 12.9% under setting [1]; 26.4% under setting [2]; 37.6% under setting [3]; 33% under setting [4]; 25% under setting [5]; 28.3% under setting [6]. Besides, the percent labeling reads like this: under setting [7], 20.4%; under setting [8], 29.6%; under setting [9], 32.8%; under setting [10], 51.3%.
Regarding `CC(C)(C)C1CCC(O)(CNC(=O)CCS)CC1` (centres undefined), the percent labeling runs as follows: under setting [1], 13.5%; under setting [2], 26.2%; under setting [3], 24.9%; under setting [4], 32.4%; under setting [5], 21.1%; under setting [6], 25.1%. The percent labeling was 11.3% under setting [7], 24.4% under setting [8], 21.3% under setting [9] and 52.1% under setting [10].
Consider `Cc1nn(C)c(-n2cncn2)c1C(=O)NCCS`, for which the percent labeling under setting [11] came out at 22.7%; the percent labeling under setting [1] is 8.3%; the percent labeling under setting [2] came to 30.3%; the percent labeling under setting [3] was determined as 22.6%; the percent labeling under setting [4] was 32.6%; the percent labeling under setting [5] is 27.7%. Besides, the percent labeling was 11% under setting [6]; 31.9% under setting [12]; 18.9% under setting [7]; 29.7% under setting [8]; 29% under setting [9]; 44.1% under setting [10].
With `Cc1cccn2cc(-c3cccc(NC(=O)CCS)c3)nc12`, the percent labeling is 9.6% under setting [1]; 17.2% under setting [2]; 22.3% under setting [3]; 17.7% under setting [4]; 19.1% under setting [5]; 38.7% under setting [6]. Besides, the percent labeling worked out at 9.8% under setting [7], 12.5% under setting [8], 12.8% under setting [9] and 29.1% under setting [10].
Turning to `O=C(CCNC(=O)c1cccs1)NCCS`, the percent labeling runs as follows: under setting [11], 26.3%; under setting [1], 14%; under setting [2], 30.6%; under setting [3], 39.5%; under setting [4], 35.7%; under setting [5], 36.7%. Moreover, the percent labeling is 27% under setting [6]; 34.1% under setting [12]; 22.6% under setting [7]; 41.1% under setting [8]; 32.6% under setting [9]; 49.1% under setting [10].
Take `O=C(Cn1cnc2sccc2c1=O)NCCS`: the percent labeling reads like this: under setting [11], 38.6%; under setting [1], 16.5%; under setting [2], 33.2%; under setting [3], 31.2%; under setting [4], 53.1%; under setting [5], 33%. Further, the percent labeling came to 34.3% under setting [6]; 38.8% under setting [12]; 35.9% under setting [7]; 34.3% under setting [8]; 35.5% under setting [9]; 53.4% under setting [10].
Regarding `CCn1cnnc1-c1ccc(C(=O)NCCS)cc1`, the percent labeling came out at 30.1% under setting [11]; 13.6% under setting [1]; 31.9% under setting [2]; 27.1% under setting [3]; 40.2% under setting [4]; 29.8% under setting [5]. Moreover, the percent labeling by setting is: under setting [6], 31.6%; under setting [12], 38.5%; under setting [7], 25.7%; under setting [8], 27.4%; under setting [9], 27%; under setting [10], 42.4%.
For `CN(Cc1ccccc1Oc1ccc(Cl)c(Cl)c1)C(=O)CCS`, the percent labeling was 18.3% under setting [1]; 35.5% under setting [2]; 22.4% under setting [3]; 21.3% under setting [4]; 22.7% under setting [5]; 50.2% under setting [6]. Moreover, the percent labeling amounted to 23% under setting [7], 21.9% under setting [8], 10.7% under setting [9] and 54.5% under setting [10].
With `O=C(NCCS)C1CCCCN1C1CCCC1` (centres undefined), the percent labeling was 36.3% under setting [11]; 15% under setting [1]; 39.1% under setting [2]; 38.9% under setting [3]; 35.5% under setting [4]; 45.9% under setting [5]. The percent labeling runs as follows: under setting [6], 23.2%; under setting [12], 37.5%; under setting [7], 23.8%; under setting [8], 33.2%; under setting [9], 29%; under setting [10], 52.1%.
Take `CC1(C)C=Cc2cccc(NC(=O)CCS)c2O1`: the percent labeling under setting [1] was found to be 19.7%; the percent labeling under setting [2] was found to be 39.5%; the percent labeling under setting [3] came to 20.2%; the percent labeling under setting [4] is 15.1%; the percent labeling under setting [5] was determined as 25.1%; the percent labeling under setting [6] came out at 43.6%. The compound further gave a percent labeling under setting [7] of 20%, a percent labeling under setting [8] of 23.6%, a percent labeling under setting [9] of 21.5% and a percent labeling under setting [10] of 39.6%.
For `O=C(CCS)NCC1CCN(c2ccncc2)CC1`, the percent labeling is 11.3% under setting [1]; 35.5% under setting [2]; 58.1% under setting [3]; 34.7% under setting [4]; 58.6% under setting [5]; 23.8% under setting [6]. Besides, the percent labeling was 22.4% under setting [7], 33.7% under setting [8], 27.7% under setting [9] and 58.8% under setting [10].
Consider `CN(c1ccccc1)c1nc(C(=O)NCCS)cs1`, for which the percent labeling under setting [11] came to 25.8%; the percent labeling under setting [1] was determined as 13.9%; the percent labeling under setting [2] turned out to be 20.1%; the percent labeling under setting [3] turned out to be 10.6%; the percent labeling under setting [4] worked out at 18.5%; the percent labeling under setting [5] worked out at 12.6%. Also, the percent labeling by setting is: under setting [6], 43.6%; under setting [12], 29.1%; under setting [7], 11.7%; under setting [8], 14.9%; under setting [9], 11.8%; under setting [10], 26%.

The values above are taken from PubChem BioAssay AID2202238 (Ras Initiative Chemistry Research Team, Frederick National …, 2025).
